Among all 410,000 compounds or so, about 6,400 (1.6%) were called active. Inconclusive means that the source gave no clear call. Such entries were picked first, then a sample of the others. The call rests on the fitted dose curve; in most records, active means well fitted inhibition curve with a large enough effect; inconclusive means small, poorly fitted or top-dose-only effect; inactive means no such curve, though single readings can be large or run the other way. No potency is given beside an inconclusive call; the fits are too rough.
Each molecule was assayed against Glucagon-like peptide 1 receptor (Homo sapiens) (UniProt P43220) (assay: qHTS of GLP-1 Receptor Inverse Agonists (Inhibition Mode)). Conditions: HEK293 GLP-1R CRE-luciferase, luminescence, 24 h; Potency: GLP-1R form is constitutively active unless noted; activity change, negative = inhibition: at 38.3 µM (top of the series) unless noted.
Sequence of UniProt P43220 (P43220 whole entry, looked up): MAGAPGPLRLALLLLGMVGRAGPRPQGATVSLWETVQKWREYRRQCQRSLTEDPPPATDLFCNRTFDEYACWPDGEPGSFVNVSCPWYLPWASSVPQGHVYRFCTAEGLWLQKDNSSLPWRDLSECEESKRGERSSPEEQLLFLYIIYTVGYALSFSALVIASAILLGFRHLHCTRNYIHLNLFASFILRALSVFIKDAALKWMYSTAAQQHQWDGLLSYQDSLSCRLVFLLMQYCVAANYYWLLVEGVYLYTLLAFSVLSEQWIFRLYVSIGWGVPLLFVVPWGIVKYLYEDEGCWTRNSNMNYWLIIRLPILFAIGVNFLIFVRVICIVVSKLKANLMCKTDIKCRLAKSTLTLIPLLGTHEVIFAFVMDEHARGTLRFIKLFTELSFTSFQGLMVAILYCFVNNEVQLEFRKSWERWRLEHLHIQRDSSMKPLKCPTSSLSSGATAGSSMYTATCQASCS
How it was run: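 Stable HEK293 clone (constitutively active GLP-1R + cAMP-response luciferase); 200 cells/uL plated, 12 h pre-culture, compound 24 hr, 37 deg C/5% CO2; detection reagent 12 min RT; luminescence.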
Further: nearly all actives have a fitted effect of over 55% in size.
On the % scale 0 is the no-effect control and ±100 the full control effect; potency means the concentration at half of the fitted maximal effect; tags describe the fitted curve by direction and shape.

Which Potency does the source give for O=C(Nc1nnc(SCc2ccccc2Cl)s1)C1COc2ccccc2O1 (stereo unspecified) here?
Its Potency is inconclusive [inhibitor, single point].

How did the Potency turn out when COC(=O)C1=C(c2ccc(OC(F)(F)F)cc2)C[C@@H]2CC[C@H]1N2C(=O)NCCOc1ccccc1 was run?
The Potency was inconclusive [inhibitor, partial curve, poor fit].

How did the Potency turn out when CN(Cc1ccccc1)C1CCCN(C(=O)COc2ccccc2Cl)C1 (stereo unspecified) was run?
The Potency was inconclusive [inhibitor, partial curve, poor fit].

For CCOC(=O)c1c(NC(=O)C(c2ccccc2)c2ccccc2)sc2c1C1CCN2CC1, which Potency is on record?
Its Potency is inconclusive [inhibitor, single point].

With FC(F)(F)c1ccc(CN2CCNCC2)cc1 as the molecule, how does the Potency read?
Its Potency is inconclusive [inhibitor, partial curve, poor fit].

CC(=O)OC1CCC2(C)C(CCC3C2CC(=O)C2(C)C3CC(N3CC3)C2C(C)=O)C1 (stereo unspecified) was tested. Which Potency did it give?
The Potency was inconclusive [inhibitor, partial curve].

Which Potency does the source give for CCc1ccc(-c2nn(Cc3ccccc3)cc2C=O)cc1 here?
Its Potency is inconclusive [inhibitor, partial curve, poor fit].

With CCc1nc2ccc(Br)cc2c(=O)n1-c1ccccc1C(F)(F)F as the molecule, how does the Potency read?
Its Potency is inconclusive [inhibitor, partial curve, poor fit].

How did the Potency turn out when COc1cc(-n2c(=S)[nH]c3ccccc3c2=O)c(Cl)cc1Cl was run?
Its Potency is inconclusive [inhibitor, partial curve, poor fit].

COc1cc(CNCCc2ccc3c(c2)OCO3)cc(OC)c1OC was tested. Which Potency did it give?
Its Potency is inconclusive [inhibitor, partial curve, poor fit].

How did the Potency turn out when CC(C)NCC(O)c1ccc(C2CCCC2)cc1 (stereo unspecified) was run?
Its Potency is inconclusive [inhibitor, partial curve, poor fit].

How did the Potency turn out when Cc1ccc2c(c1)C1C[N+](C)(CC(=O)c3ccc(Cl)cc3Cl)CCC1N2C(=O)c1ccc(F)cc1 (stereo unspecified) was run?
The Potency was inconclusive [inhibitor, single point].

Which Potency does the source give for O=C(c1ccc(C(F)(F)F)cc1)C1CCCN(C2CCSCC2)C1 (stereo unspecified) here?
The Potency was inconclusive [inhibitor, single point].

CN(CC1COc2ccccc2O1)c1nc(-c2cccnc2)nc2ccccc12 (stereo unspecified) was tested. Which Potency did it give?
Its Potency is inconclusive [inhibitor, partial curve, poor fit].

How did the Potency turn out when CCOc1ccc(-c2cc(C)[n+](CCO)c(-c3ccc(OCC)cc3)c2)cc1 was run?
The Potency was “inactive”.

How did the Potency turn out when COc1cccc(C(C)(O)c2nc(-c3cccc(F)c3)cs2)c1 (stereo unspecified) was run?
Its Potency is inconclusive [inhibitor, single point].

Which Potency does the source give for CCc1ccc2c(c1)Sc1ccccc1CC2N1CCN(C)CC1 (stereo unspecified) here?
Its Potency is inconclusive [inhibitor, partial curve, poor fit].

With Oc1ccc(Cl)cc1Cc1ccccc1 as the molecule, how does the Potency read?
The Potency was inconclusive [inhibitor, single point].

COc1ccc(C(CNC(=O)Cc2ccc(Cl)c(Cl)c2)N(C)C)cc1 (stereo unspecified) was tested. Which Potency did it give?
The Potency was inconclusive [inhibitor, partial curve, poor fit].

With CCOc1ccc2nc(N(CCN(CC)CC)C(=O)c3ccc([N+](=O)[O-])cc3)sc2c1 as the molecule, how does the Potency read?
Its Potency is inconclusive [inhibitor, partial curve, poor fit].

COc1cccc(CN(C)C[C@@H]2OCc3ccccc3-c3c(n(C)c4ccccc34)C(=O)N([C@@H](C)CO)C[C@H]2C)c1 was tested. Which Potency did it give?
The Potency was active: 10 µM.

How did the Potency turn out when Oc1ccc(Cl)cc1CN1CCN(Cc2ccccc2)CC1 was run?
Its Potency is inconclusive [inhibitor, partial curve, poor fit].

Which Potency does the source give for Brc1ccc2[nH]cc(C=NN3CCCCCC3)c2c1 here?
The Potency was inconclusive [inhibitor, single point].

How did the Potency turn out when O=P(Nc1ccccc1)(Nc1ccccc1)Oc1cccc(Cl)c1 was run?
Its Potency is inconclusive [inhibitor, partial curve, poor fit].

For COc1ccccc1CN1CCCC(C(=O)c2ccccc2SC)C1 (stereo unspecified), which activity change, negative = inhibition is on record?
The activity change, negative = inhibition was inactive: -2.22% [at 0.307 µM, GLP-1R form is constitutively active].

How did the Potency turn out when CCOC(=O)C1=C(C)OC(N)=C(C(=O)OCC)C12C(=O)Nc1ccc(Br)cc12 (stereo unspecified) was run?
Its Potency is inconclusive [inhibitor, partial curve, poor fit].

For COc1ccc(C(=O)NCCn2cc(SC(C)c3ccccc3)c3ccccc32)cc1OC (stereo unspecified), which Potency is on record?
Its Potency is inconclusive [inhibitor, single point].

How did the Potency turn out when Fc1ccc(CCNCc2cccc(Cl)c2)cc1 was run?
The Potency was inconclusive [inhibitor, single point].

With O=C(c1ccc(Cl)cc1)C1CCCN(Cc2ccc3nonc3c2)C1 (stereo unspecified) as the molecule, how does the Potency read?
Its Potency is inconclusive [inhibitor, single point].

Which Potency does the source give for CCOC(=O)c1c(C)n(CC(O)CN2CCOCC2)c2cc(Br)c(OC)cc12 (stereo unspecified) here?
The Potency was inconclusive [inhibitor, single point].

How did the Potency turn out when COc1cc([C@@H]2c3cc4c(cc3[C@@H](OC)[C@H]3COC(=O)[C@H]23)OCO4)cc(OC)c1O was run?
Its Potency is inconclusive [inhibitor, full curve, poor fit].

With CCOC(=O)C1CCN(/C=C2/C(=O)NC(=O)N(Cc3ccco3)C2=O)CC1 as the molecule, how does the Potency read?
Its Potency is “inactive”.

Which Potency does the source give for O=C(Cc1ccccc1)N1CCN(Cc2ccc(Cl)cc2)CC1 here?
The Potency was inconclusive [inhibitor, partial curve, poor fit].

For CC(Cc1ccccc1)NC(=O)NC(C)Cc1ccccc1 (stereo unspecified), which Potency is on record?
The Potency was inconclusive [inhibitor, single point].

With CC12CCC(O)CC1CCC1C2CCC2(C)C(C3=CC(=O)OC3)C(O)CC12O (stereo unspecified) as the molecule, how does the Potency read?
Its Potency is inconclusive [inhibitor, full curve, poor fit].

How did the Potency turn out when CC(C)c1cccc(C(C)C)c1OC(=O)NC(=O)c1c(F)cccc1F was run?
The Potency was active: 8.91 µM.

CCOc1ccc(CN(CCc2ccc3c(c2)OCO3)Cc2cccc(C)c2)cc1 was tested. Which Potency did it give?
Its Potency is inconclusive [inhibitor, single point].

With CCCC[N+]12C3C[C@H](C4[C@H](O)[C@]5(C[C@@H]41)c1ccccc1N(C)[C@@H]35)[C@H](CC)[C@H]2O (stereo partly specified) as the molecule, how does the Potency read?
The Potency was “inactive”.

With O=P(Oc1ccccc1)(Oc1ccccc1)c1ccccc1 as the molecule, how does the Potency read?
The Potency was inconclusive [inhibitor, partial curve, poor fit].

For O=c1[nH]c(=S)n(C2CC2)c(O)c1/C=N/Nc1ccccc1, which Potency is on record?
Its Potency is inconclusive [inhibitor, single point].

How did the Potency turn out when Cc1ccc(OCC(=O)N2CCN(Cc3ccc([N+](=O)[O-])cc3)CC2)cc1 was run?
The Potency was inconclusive [inhibitor, partial curve, poor fit].

How did the Potency turn out when COC(=O)C1=C(c2ccc(F)cc2F)C[C@@H]2CC[C@H]1N2C(=O)N1CCC(C)CC1 was run?
Its Potency is inconclusive [inhibitor, single point].

Which Potency does the source give for CCCC/C(C)=C/[C@@H](NP(=O)(c1ccccc1)c1ccccc1)c1ccccc1 here?
Its Potency is inconclusive [inhibitor, partial curve, poor fit].

CC1(C(O)(C#CCN2CCCCC2)c2ccccc2)CCCC1 (stereo unspecified) was tested. Which Potency did it give?
Its Potency is inconclusive [inhibitor, partial curve, poor fit].

For O=C1NC(=S)N(C2CC2)C(=O)/C1=C/c1ccc2c(c1)CCN2CCCCl, which Potency is on record?
The Potency was “inactive”.

Which Potency does the source give for CC(c1ccccc1)n1cncc1C(=O)N1CCCC1=O (stereo unspecified) here?
The Potency was “inactive”.

Which Potency does the source give for Nc1c(C(=O)NCCN2CCOCC2)c2nc3ccccc3nc2n1Cc1ccco1 here?
Its Potency is “inactive”.

With CCCCn1c(=O)c(C(=O)NC(C)c2ccccc2)c(O)c2ccccc21 (stereo unspecified) as the molecule, how does the Potency read?
The Potency was inconclusive [inhibitor, full curve, poor fit].

With COc1ccc(C(C)(C)C)cc1NC(=O)CCCn1c(=O)oc2ccccc21 as the molecule, how does the Potency read?
Its Potency is inconclusive [inhibitor, partial curve, poor fit].

COc1cccc(NC(=O)C2CCN(S(=O)(=O)c3cc(-c4noc(C)n4)ccc3C)CC2)c1 was tested. Which Potency did it give?
The Potency was inconclusive [inhibitor, partial curve, poor fit].

Which Potency does the source give for COc1ccc(CN2CCN(C(=O)COc3ccccc3)CC2)c(OC)c1 here?
Its Potency is inconclusive [inhibitor, full curve, poor fit].

For CCN(C(=O)COC(=O)Cc1ccccc1)c1c(N)n(Cc2ccccc2)c(=O)[nH]c1=O, which Potency is on record?
The Potency was “inactive”.

For COc1ccc(C(=O)Nc2ccc(-c3cc(C(F)(F)F)nn3-c3ccccc3)cc2)cc1OC, which Potency is on record?
The Potency was inconclusive [inhibitor, full curve, poor fit].

With CC[N+]12CCC(CC1)C(C(O)(c1ccccc1)c1ccccc1)C2 (stereo unspecified) as the molecule, how does the Potency read?
Its Potency is inconclusive [inhibitor, partial curve, poor fit].

For COC(=O)c1ccc(CC(C(=O)c2ccccc2)N(C)C)cc1 (stereo unspecified), which Potency is on record?
Its Potency is “inactive”.

For CC(=O)N1CCCc2cc(S(=O)(=O)N3CCCC(C(=O)Nc4cccc(F)c4)C3)ccc21 (stereo unspecified), which Potency is on record?
Its Potency is inconclusive [inhibitor, single point].

Which Potency does the source give for C=C1CCN([C@@H](Cc2ccccc2)C(=O)Nc2ccc(OC)cc2)S(=O)(=O)c2ccccc21 here?
Its Potency is inconclusive [inhibitor, partial curve, poor fit].

Which Potency does the source give for CC1(C)C[C@H]2C=C(C=O)[C@]3(C=O)C[C@]3(C)[C@H]2C1 here?
Its Potency is inconclusive [inhibitor, single point].

How did the Potency turn out when CCN(CC)CCCOC(=O)C(OC)(c1ccccc1)c1ccccc1 was run?
The Potency was inconclusive [inhibitor, partial curve, poor fit].

How did the Potency turn out when CCCCNC(C)Cc1ccccc1 (stereo unspecified) was run?
The Potency was “inactive”.

CCCc1[nH]nc2c1C1(C(=O)N(Cc3ccccc3)c3ccccc31)C(C(=O)OC)=C(N)O2 (stereo unspecified) was tested. Which Potency did it give?
Its Potency is inconclusive [inhibitor, partial curve].

From PubChem BioAssay AID624417 (National Center for Advancing Translational Sciences (NCATS), 2012)
